Scores with a large standard error are left out. Not listed are two conditions whose scores span a narrow range. Read del as a deletion of the residues named and ins as an insertion between two positions. For part of these data: The concentration of ogerin is not given here.
B1: GPR68, Q15743 (parent)
chain: MGNITADNSSMSCTIDHTIHQTLAPVVYVTVLVVGFPANCLSLYFGYLQIKARNELGVYLCNLTVADLFYICSLPFWLQYVLQHDNWSHGDLSCQVCGILLYENIYISVGFLCCISVDRYLAVAHPFRFHQFRTLKAAVGVSVVIWAKELLTSIYFLMHEEVIEDENQHRVCFEHYPIQAWQRAINYYRFLVGFLFPICLLLASYQGILRAVRRSHGTQKSRKDQIQRLVLSTVVIFLACFLPYHVLLLVRSVWEASCDFAKGVFNAYHFSLLLTSFNCVADPVLYCFVSETTHRDLARLRGACLAFLTCSRTGRAREAYPLGAPEASGKSGAQGEEPELLTKLHPAFQTPNSPGSGGFPTGRLA

Columns and labels:
[1] = variants of: B1; experiment: cAMP reporter score (Enrich2 score, wild type = 0); higher = more signal; HEK293T, FACS bins
[2] = variants of: B1; experiment: surface expression score (Enrich2 score, wild type = 0); higher = more signal; HEK293T, FACS bins

Variant	cAMP reporter score ([1]; pH 5.5)	cAMP reporter score ([1]; pH 6)	cAMP reporter score ([1]; pH 6, modulator: ogerin)	cAMP reporter score ([1]; pH 6.5, modulator: ogerin)	surface expression score [2]
A203_S204del	-1.56	-0.659	-1.49	-0.864	-2.18
S204A	0.568	-0.163	1.13	-0.483	
S204C	1.35	2.64	0.595		1.13
S204F	-0.007		-0.299		-1.56
S204E	-1.31	-2.64	-2.12	-0.719	
S204G	-0.132	0.294	0.809	-0.601	-1.2
L200_L201insGSG	-1.54	-1.18			-1.8
L202D	-2.52	-1.29		-2.4	-3.35
L202T	1.47	1.56	1.22	2.31	-0.078
L202H	0.832	0.592		-0.433	-1.22
L202G	-0.003	1.17	0.929	1.9	-0.927
L202E	-0.847	-1.28	-1.07	-1.29	-2.65
L202A	0.387		0.702	1.34	0.037
L202I	1.01	-0.471	1.1	1.96	1.16
L202K	-0.944	-1.84	-0.5	-1.13	
L202Y	-0.917	-1.98	-0.394	-1.51	-1.9
L202C	1.28	2.36	1.96	3.19	0.802
L202M	-0.037	-0.293	-0.041	0.265	-0.874
L202Q	-0.765	-0.684	-1.76	-0.978	-1.96
L202W	0.234	0.884	0.768	1.57	0.391
L202F	0.621		0.039	0.475	-0.114
L202V	0.768	0.155	0.583	1.06	-0.224
L202S	-0.029			-0.369	-2.48

Variant	cAMP reporter score ([1]; pH 5.5)	cAMP reporter score ([1]; pH 6)	cAMP reporter score ([1]; pH 6, modulator: ogerin)	cAMP reporter score ([1]; pH 6.5, modulator: ogerin)	surface expression score [2]
L201_L202insGSG	-1.58		-2.63	-1.92	-1.54
A203D	-0.866	-0.663	-1.18	-1.15	-1.38
A203S	1.11	-0.214	0.72	0.863	0.784
A203K	-1.15	-0.912	-0.492		-1.76
A203Y	0.829	1.61	1.29	1.56	1.2
A203T	1.33	0.639	2.02	0.83	0.292
A203Q	-0.423	-0.648	-0.642	-0.432	
A203F	1.2	1.53	1.33	2.4	2.25
A203G	0.101	-0.623		-0.43	1.21
A203C	-0.622	-0.497	0.033	-0.245	-0.139
A203R	-0.511		-0.878	-0.721	-1.72
A203P	0.223	1.04	0.253	-0.567	-2.17
A203I	0.383	0.087	0.179	0.926	0.211
A203N	1.85	0.119		-1.05	
A203L	-0.03		0.609	-0.328	1.04
A203M	0.863		0.421	0.949	1.42
A203W	-0.395		-1.32	-1.09	-0.286
A203del	-0.906	-1.13	-1.27	-1.03	-1.67
C199_L201del	-0.411	-0.355	-4.35		-0.324
C199_L200del	-0.403	-0.545			-2.03
V192del	-0.239		-2.23	-1.39	-2.87
G193C	-0.37	-0.898	-1.78	-0.79	-0.989
G193K	-1	-0.403	-1.68	-1.12	-2.79

Variant	cAMP reporter score ([1]; pH 5.5)	cAMP reporter score ([1]; pH 6)	cAMP reporter score ([1]; pH 6, modulator: ogerin)	cAMP reporter score ([1]; pH 6.5, modulator: ogerin)	surface expression score [2]
G193V	-1.71	-1.16	-1.65	-1.45	-2.37
G193R	-1.22	-1.9	-1.67	-1.31	-2.13
G193Y	-0.864	1.95	-1.27		-0.678
G193H	-0.322	-0.832	-1.65	-1.79	-3.54
G193M	-1.94	-0.564	-0.88	-1.07	-2.37
G193T	-1.18	-0.958	-1.77	-1.22	-2.61
G193E	-0.585	-0.56	-0.735	-0.708	-0.483
G193Q	0.328	-0.757	-1.44	-1.37	-2.12
G193I	-1.73	-1.09	-1.72	-0.776	-1.76
G193D	-1		-0.746	-2.9	1.19
G193W	-1.6	-0.701	-1.63	-1.84	-2.19
G193P	-1.76		-2.04	-1.35	-2.33
G193F	-0.975	-0.441		-0.733	-1.59
G193A	-0.999	-1.08	-1.1	-1.73	-2.68
G193L	-0.619			-0.585	
G193S	-0.13	0.571	0.388	0.083	-0.644
G193N	-0.699		-0.973	0.165	-2.07
F194N	-0.623	-0.177		-0.521	-2.14
F194A	0.422	0.204	-0.003	-0.444	-0.752
F194T	-0.686	-1.32	-0.571	0.914	-3.07
F194S	-0.424		-0.166	-0.406	-2.27
F194P	-1.78	-1.81	-1.3	-1.37	-2.48
F194Q	-0.411	-1.48			-1.59

Variant	cAMP reporter score ([1]; pH 5.5)	cAMP reporter score ([1]; pH 6)	cAMP reporter score ([1]; pH 6, modulator: ogerin)	cAMP reporter score ([1]; pH 6.5, modulator: ogerin)	surface expression score [2]
F194G	-0.999	-0.731	-1.21	-1.4	-1.44
F194V	-1.24	-0.588	-1.31	-1.15	
F194C	1.73		0.308		
F194M	0.29		-1.31		-2.11
F194E	-0.522		-0.702	-0.681	-2.35
F194D	-0.482		-0.83	-0.423	-0.42
F194Y	0.396	-0.711	-2.78	-2.16	-2.51
F194L	-0.4		-0.826	-0.549	-1.42
F194R	-2.43	-1.11	-2.6	-0.702	-2.42
F194I	-0.589	-0.675	-2.5	-0.219	-1.62
F194W	0.411	-0.418	-0.91	0.636	
L201_L202insG	-2.05	-1.09	-1.71	-0.741	-2.43
V192T	0.294	0.312	0.586	0.293	-0.145
V192W	-0.295	-1.46	-1.19	-0.045	-0.983
V192Q	1.59		0.239	-0.51	-1.84
V192R	-1.4	-0.851	-0.669	0.024	-2.03
V192Y	-0.832	-1.38	-1.52		-2.28
V192S	0.063	-0.397	-0.193	-0.763	-0.071
C199_L200insGSG	-2.36	-1.47	-2.36	-2.32	-2.1
C199del	-1.22	-1.28	-1.83	-1.01	-2.39
V192_G193del	-1.5	-1.46	-1.71	-1.24	-2.73
F194_L195insG	-1.82	-0.776	-1.8	-1.95	-2.56
C199M	1.24	0.452	1.5	1.34	0.485

Variant	cAMP reporter score ([1]; pH 5.5)	cAMP reporter score ([1]; pH 6)	cAMP reporter score ([1]; pH 6, modulator: ogerin)	cAMP reporter score ([1]; pH 6.5, modulator: ogerin)	surface expression score [2]
C199W	0.199	-0.844	0.269	-0.02	-1.61
C199N	-1.55		-2.45	-1.32	
C199A	0.103	-1.02	0.35	0.551	0.001
C199R	-5.2	-0.434	-0.614	0.407	
C199E	-0.851	-1.81	-1.02	-0.698	-2.61
C199Y	-0.939	-0.783	-0.959	-1.67	-1.62
C199H	-0.178	-0.187		-3.11	
C199I	-0.169	-0.798		0.401	0.992
C199S	0.359	-1.09	0.236	-0.892	0.408
C199V	0.031	-0.272	-0.259	-0.808	0.394
C199T	0.723		0.792	0.792	0.244
C199Q	-0.867	-1.33	-0.97	-0.695	-2.46
C199F	0.923	0.439	1.06	0.679	-0.426
C199G	-0.056	-0.41	0.16	-0.867	-0.368
G193_L195del	-1.23	-1.1	-2.12	-1.45	-2.91
A203_Y205del	-1.81	-1.58	-1.62	-0.948	-1.47
P197_I198insGSG	-1.49	-1.76	-1.79	-0.616	
A203_S204insGS	-0.868		-1.78	-1.31	-2.02
L195_P197del	-0.871	-1.22	-1.05	-0.848	-3.41
L200del	-1.2	-0.421	-1.29	-1.28	-1.5
L201A	0.207		-1.62	-1.43	-0.685
L201I	0.885	0.825	0.712	-0.212	0.537
L201R	-2	-2.34	-2.17	-1.13	-2.73

Variant	cAMP reporter score ([1]; pH 5.5)	cAMP reporter score ([1]; pH 6)	cAMP reporter score ([1]; pH 6, modulator: ogerin)	cAMP reporter score ([1]; pH 6.5, modulator: ogerin)	surface expression score [2]
L201K	-1.14	-0.65		-0.493	-1.81
L201C	-0.412	-1.58	-0.562	-0.703	2.11
L201S	0.672	-1.43	-1.44	-1.04	0.381
L201Q	-0.119	-1.38	-1.02	-0.551	-0.923
L201V	-0.122	-0.274	-0.414	-0.998	1.21
L201Y	-0.31	-0.551		-0.797	-2.46
L201T	-0.222	-0.492	-1.02	-1.69	0.42
L201H	-2.47	-0.089		-1.17	-0.419
L201W	-0.403			-2.45	-2.86
L201D	-0.884	-1.96		-1.34	-3.23
L201G	-1.1	-0.671		-1.69	-0.89
L201E	-1.34	-0.432			-1.72
L201N	-2.22	-1.34			1.03
L201P	-0.998	0.217		-0.76	
L201M	0.31	0.791	-0.214	0.344	1.17
L201F	2.46	5.14	0.67	1.82	
V192_G193insG	-1.22	-1.18	-1.63	-1.18	-2.6
F196_P197del	-1.39	-1.71		-1.08	-2.39

Source: the GPR68 mutational scans of Howard et al. (2025)
